Assay results reported in the supplement of paper PMC3334620.
Whole data set: some 33,000 sequences, median “E-score (-0.5 to 0.5)” near -0.04, cut for the highest 2% near 0.36. The list shows a part of the results.

target: T1, Hmlalpha2 (UniProt P0CY09); assay: PBM E-score (8-mer binding enrichment) (E-score (-0.5 to 0.5)); higher = stronger / more preferred TF binding; most listed sequences are background and not binding sites; settings: protein concentration: 200 nM; construct: GST-full length
T1 sequence: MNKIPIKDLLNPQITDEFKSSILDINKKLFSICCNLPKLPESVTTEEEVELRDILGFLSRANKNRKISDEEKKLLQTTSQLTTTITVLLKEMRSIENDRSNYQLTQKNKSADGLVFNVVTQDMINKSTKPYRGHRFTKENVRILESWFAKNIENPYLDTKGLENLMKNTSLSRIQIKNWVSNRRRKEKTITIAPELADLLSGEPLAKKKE
Outline: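 Each ungapped eight-base word and its reverse complement, pooled, received an E-score from the Universal PBM Analysis Suite. Underlying scans, normalised with masliner, recorded fluorescent anti-GST bound to GST-tagged yeast transcription factors. These were applied at about 100-200 nM to universal all-10-mer Agilent arrays double-stranded by primer extension.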

Sequence | PBM E-score
CTGGAATA | 0.0108
CGTCTGCC | -0.213
ATTCTTGC | 0.00961
GCTCGGAC | -0.269
ACAGCAAA | 0.177
CGTGGAAA | 0.0796
AATATGGG | -0.217
CGCAGCAC | -0.043
AGAGCATA | -0.0993
ACATACAT | 0.421
CTTGCTCA | -0.254
GCCGGAAC | -0.254
AATCCCGA | -0.115
ATAATGCA | 0.0474
ATAGTTCA | 0.0984
ACATTTCA | 0.214
AGTTGCAT | 0.0449
ACACCCGG | -0.0695
GGGAACCA | -0.181
GAAAGGCC | -0.196
CTGGTACA | 0.0927
GGGGACTA | -0.0876

Sequence | PBM E-score
CAAAACAG | 0.124
AAGCCGCA | -0.12
ATAGCAGA | 0.00582
AGCCAAGC | -0.18
GCTCTCAA | -0.101
AACTGTTG | -0.104
GATTCCCC | -0.196
GAAGTCGA | -0.0459
ATGGTTTG | -0.0325
GCGACAGA | -0.161
GAACACCC | -0.112
TTGTACAA | 0.442
AGGTAAAA | 0.16
CTACAAAA | 0.0813
AATCTTTG | 0.169
GCAGCTGA | -0.142
TGCTCCCA | 0.0677
GGGTGCCA | -0.211
CTAGGTCC | -0.196
AGCCACCG | -0.248
AATCGGAG | -0.157
CTAGATAC | 0.159

Sequence | PBM E-score
CAAGACAA | 0.156
AAAACTAT | 0.132
AATTTATC | 0.295
AGTAAAGA | 0.121
ACCTGGAC | -0.188
ACGGCTCC | -0.094
CTCAGGTA | 0.0219
ATTAATAC | 0.29
ACAACGAC | 0.175
GAGGCCTC | -0.357
CCTAGGCA | -0.206
ATGTACTG | 0.351
ACGTTAGC | 0.24
CAGTAAAC | 0.00951
ACGCAGGC | 0.0953
TAAGGTGA | -0.094
AAGTCCTG | -0.155
CGAAGTAG | -0.0138
CGGTACCA | -0.164
CTTTACGA | 0.185
ATATTAAA | 0.258
AAAAAGGA | -0.00436

Sequence | PBM E-score
CCTGAAGC | -0.225
TGTTAAAA | 0.43
GGTGAGCA | -0.0507
CATAGCAA | 0.0168
CTCGTAAG | 0.172
GCATGTAC | 0.408
CTCCCGAG | -0.354
CGGCTGAG | -0.288
CGAGTGCA | 0.18
AGCTTATC | -0.216
AGGCGGAT | -0.0519
GCGGTGGA | -0.197
CCTTACTC | -0.032
ATTGCGAC | 0.00921
CACTTCTC | -0.182
GATGGAGC | -0.06
GACTGCCC | -0.138
AAGGCTAA | -0.0882
GAAAGCAC | -0.0664
ATGAATCG | 0.0465
